Assay results taken from the supplement of paper PMC12217912.
This is one part of the list. The full chains were built here from the parent and the listed change. Inactive controls read about 0.05.

B1: TEV protease; numbered along this chain (parent)
chain: MGESLFKGPRDYNPISSSICHLTNESDGHTTSLYGIGFGPFIITNKHLFRRNNGTLVVQSLHGVFKVKDTTTLQQHLVDGRDMIIIRMPKDFPPFPQKLKFREPQREERICLVTTNFQTKSMSSMVSDTSCTFPSGDGIFWKHWIQTKDGQCGSPLVSTRDGFIVGIHSASNFTNTNNYFTSVPKNFMELLTNQEAQQWVSGWRLNADSVLWGGHKVFMVKPEEPFQPVKEATQL

Variants of: B1
Assay: raw area under fraction-flipped curve 0-4 h after induction (AUC4h, not background-subtracted), DNA-recorder readout of cleavage of the substrate (dimensionless); higher = more cleavage of the substrate by the protease variant
Conditions: temperature: 34 °C; time window: 0-4 h after rhamnose induction
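Further: Bxb1 expression induced with 0.2% (w/v) L-rhamnose at OD600 near 0.5, cultures sampled hourly, flipped fraction per protease–substrate barcode pair counted by paired-end Illumina sequencing.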

Row | Variant | area with substrate EELYFQS | area with substrate EGLYFQS | area with substrate EHLYFQS | area with substrate EILYFQS | area with substrate EKLYFQS | area with substrate EPLYFQS | area with substrate EQLYFQS | area with substrate ERLYFQS | area with substrate ESLYFQS | area with substrate ETLYFQS | area with substrate EVLYFQS | area with substrate EWLYFQS | area with substrate EYLYFQS | area with substrate EFLYFQS | area with substrate EMLYFQS | area with substrate ELLYFQS
1 | MGESLFKGPRDENPISSSICHLTNESDGHTTSLYGIGFGPFIITNKHLFRRNNGTLVVQSLHGVFKVKDTTTLQQHLVDGRDMIIIRMPKDFPPFPQKLKFREPQREERICLVTTNFQTKSMSSMVSDTSCTFPSGDGIFWKHWIQTKDGQCGSPLVSTRDGFIVGIHSASNFTNTNNYFTSVPKNFMELLTNQEAQQWVSGWRLNADSVLWGGHKVFMVKPEEPFQPVKEATQL [Y12E] | 0.111 | 0.13 | 0.105 | 0.112 | 0.07 | 0.104 | 0.116 | 0.0856 | 0.1 | 0.105 | 0.0928 | 0.0932 | 0.123 | – | – | –
2 | MGESLFKGPRDYNPISSSECHLTNESDGHTTSLYGIGFGPFIITNKHLFRRNNGTLVVQSLHGVFKVKDTTTLQQHLVDGRDMIIIRMPKDFPPFPQKLKFREPQREERICLVTTNFQTKSMSSMVSDTSCTFPSGDGIFWKHWIQTKDGQCGSPLVSTRDGFIVGIHSASNFTNTNNYFTSVPKNFMELLTNQEAQQWVSGWRLNADSVLWGGHKVFMVKPEEPFQPVKEATQL [I19E] | 0.059 | – | 0.049 | 0.0377 | 0.0553 | – | 0.0491 | 0.0531 | 0.0585 | 0.0536 | 0.0495 | – | 0.0762 | 0.0591 | 0.055 | –
3 | MGESLFKGPRDYNPISSSIGHLTNESDGHTTSLYGIGFGPFIITNKHLFRRNNGTLVVQSLHGVFKVKDTTTLQQHLVDGRDMIIIRMPKDFPPFPQKLKFREPQREERICLVTTNFQTKSMSSMVSDTSCTFPSGDGIFWKHWIQTKDGQCGSPLVSTRDGFIVGIHSASNFTNTNNYFTSVPKNFMELLTNQEAQQWVSGWRLNADSVLWGGHKVFMVKPEEPFQPVKEATQL [C20G] | 0.0875 | 0.0582 | – | – | – | – | – | – | – | – | – | 0.0675 | 0.0476 | – | – | –
4 | MGESLFKGPRDYNPISSSICHLTNESDGHTTSLYGIGFGPFIITNKSLFRRNNGTLVVQSLHGVFKVKDTTTLQQHLVDGRDMIIIRMPKDFPPFPQKLKFREPQREERICLVTTNFQTKSMSSMVSDTSCTFPSGDGIFWKHWIQTKDGQCGSPLVSTRDGFIVGIHSASNFTNTNNYFTSVPKNFMELLTNQEAQQWVSGWRLNADSVLWGGHKVFMVKPEEPFQPVKEATQL [H47S] | 0.0595 | – | – | 0.0575 | – | – | 0.0479 | – | 0.0609 | – | 0.0502 | 0.0595 | 0.046 | – | – | 0.067
5 | MGESLFKGPRDYNPISSSICHLTNESDGHTTSLYGIGFGPFIITNKHLFRRNNGTLVVYSLHGVFKVKDTTTLQQHLVDGRDMIIIRMPKDFPPFPQKLKFREPQREERICLVTTNFQTKSMSSMVSDTSCTFPSGDGIFWKHWIQTKDGQCGSPLVSTRDGFIVGIHSASNFTNTNNYFTSVPKNFMELLTNQEAQQWVSGWRLNADSVLWGGHKVFMVKPEEPFQPVKEATQL [Q59Y] | 0.111 | 0.0866 | – | – | – | 0.111 | – | 0.122 | 0.11 | – | – | – | 0.102 | 0.133 | – | 0.0951
6 | MGESLFKGPRDYNPISSSICHLTNESDGHTTSLYGIGFGPFIITNKHLFRRNNGTLVVQSLHGVFKVKCTTTLQQHLVDGRDMIIIRMPKDFPPFPQKLKFREPQREERICLVTTNFQTKSMSSMVSDTSCTFPSGDGIFWKHWIQTKDGQCGSPLVSTRDGFIVGIHSASNFTNTNNYFTSVPKNFMELLTNQEAQQWVSGWRLNADSVLWGGHKVFMVKPEEPFQPVKEATQL [D69C] | 0.14 | 0.0662 | 0.135 | 0.0848 | 0.082 | 0.101 | 0.0869 | – | 0.086 | – | 0.0776 | 0.0943 | 0.0858 | – | 0.127 | –
7 | MGESLFKGPRDYNPISSSICHLTNESDGHTTSLYGIGFGPFIITNKHLFRRNNGTLVVQSLHGVFKVKITTTLQQHLVDGRDMIIIRMPKDFPPFPQKLKFREPQREERICLVTTNFQTKSMSSMVSDTSCTFPSGDGIFWKHWIQTKDGQCGSPLVSTRDGFIVGIHSASNFTNTNNYFTSVPKNFMELLTNQEAQQWVSGWRLNADSVLWGGHKVFMVKPEEPFQPVKEATQL [D69I] | 0.0995 | – | – | 0.0717 | – | 0.0703 | 0.0639 | 0.0602 | – | 0.0922 | – | 0.0817 | – | – | – | –
8 | MGESLFKGPRDYNPISSSICHLTNESDGHTTSLYGIGFGPFIITNKHLFRRNNGTLVVQSLHGVFKVKDTTTLWQHLVDGRDMIIIRMPKDFPPFPQKLKFREPQREERICLVTTNFQTKSMSSMVSDTSCTFPSGDGIFWKHWIQTKDGQCGSPLVSTRDGFIVGIHSASNFTNTNNYFTSVPKNFMELLTNQEAQQWVSGWRLNADSVLWGGHKVFMVKPEEPFQPVKEATQL [Q74W] | 0.0899 | 0.0905 | 0.0978 | 0.102 | 0.0806 | – | 0.0964 | – | 0.0834 | 0.088 | 0.0756 | 0.0875 | 0.113 | 0.112 | – | 0.0884
9 | MGESLFKGPRDYNPISSSICHLTNESDGHTTSLYGIGFGPFIITNKHLFRRNNGTLVVQSLHGVFKVKDTTTLQQHLVDGRDMIIIRMPKDFPPFPQKLKFREPQREERICLVTTNFQTKSMSSMVSDTSCTFPSGDGIFWKHWIQTKDGQCGSPLVSTRDGFIVPIHSASNFTNTNNYFTSVPKNFMELLTNQEAQQWVSGWRLNADSVLWGGHKVFMVKPEEPFQPVKEATQL [G166P] | 0.0551 | – | – | 0.0227 | 0.0585 | 0.0353 | 0.0491 | – | 0.0471 | – | 0.0494 | 0.0458 | – | 0.0464 | – | –
10 | MGESLFKGPRDYNPISSSICHLTNESDGHTTSLYGIGFGPFIITNKHLFRRNNGTLVVQSLHGVFKVKDTTTLQQHLVDGRDMIIIRMPKDFPPFPQKLKFREPQREERICLVTTNFQTKSMSSMVSDTSCTFPSGDGIFWKHWIQTKDGQCGSPLVSTRDGFIVGIHSASNFTNTNNYFTSVPKNFMELLTIQEAQQWVSGWRLNADSVLWGGHKVFMVKPEEPFQPVKEATQL [N193I] | 0.102 | 0.0787 | 0.0816 | 0.0954 | 0.0879 | 0.106 | – | 0.0791 | – | – | 0.106 | – | 0.0783 | 0.102 | 0.0968 | 0.0858
